Results are given in words; binding and its absence hold for the method and conditions named. In cells and extracts the contact can be indirect. Some results given as binding are weak or reduced against the parent protein; the word gives no strength. For part of these data: Where a sequence is shown, tags or fusion partners need not be part of it.
B1: SGLT2-GFP (protein, UniProt P31639 1-672)
chain: MEEHTEAGSAPEMGAQKALIDNPADILVIAAYFLLVIGVGLWSMCRTNRGTVGGYFLAGRSMVWWPVGASLFASNIGSGHFVGLAGTGAASGLAVAGFEWNALFVVLLLGWLFAPVYLTAGVITMPQYLRKRFGGRRIRLYLSVLSLFLYIFTKISVDMFSGAVFIQQALGWNIYASVIALLGITMIYTVTGGLAALMYTDTVQTFVILGGACILMGYAFHEVGGYSGLFDKYLGAATSLTVSEDPAVGNISSFCYRPRPDSYHLLRHPVTGDLPWPALLLGLTIVSGWYWCSDQVIVQRCLAGKSLTHIKAGCILCGYLKLTPMFLMVMPGMISRILYPDEVACVVPEVCRRVCGTEVGCSNIAYPRLVVKLMPNGLRGLMLAVMLAALMSSLASIFNSSSTLFTMDIYTRLRPRAGDRELLLVGRLWVVFIVVVSVAWLPVVQAAQGGQLFDYIQAVSSYLAPPVSAVFVLALFVPRVNEQGAFWGLIGGLLMGLARLIPEFSFGSGSCVQPSACPAFLCGVHYLYFAIVLFFCSGLLTLTVSLCTAPIPRKHLHRLVFSLRHSKEEREDLDADEQQGSSLPVQNGCPESAMEMNEPQAPAPSLFRQCLLWFCGMSRGGVGSPPPLTQEEAAAAARRLEDISEDPSWARVVNLNALLMMAVAVFLWGFYA
B2: SGLT2-Δ548-650 (protein, UniProt P31639)
chain: MEEHTEAGSAPEMGAQKALIDNPADILVIAAYFLLVIGVGLWSMCRTNRGTVGGYFLAGRSMVWWPVGASLFASNIGSGHFVGLAGTGAASGLAVAGFEWNALFVVLLLGWLFAPVYLTAGVITMPQYLRKRFGGRRIRLYLSVLSLFLYIFTKISVDMFSGAVFIQQALGWNIYASVIALLGITMIYTVTGGLAALMYTDTVQTFVILGGACILMGYAFHEVGGYSGLFDKYLGAATSLTVSEDPAVGNISSFCYRPRPDSYHLLRHPVTGDLPWPALLLGLTIVSGWYWCSDQVIVQRCLAGKSLTHIKAGCILCGYLKLTPMFLMVMPGMISRILYPDEVACVVPEVCRRVCGTEVGCSNIAYPRLVVKLMPNGLRGLMLAVMLAALMSSLASIFNSSSTLFTMDIYTRLRPRAGDRELLLVGRLWVVFIVVVSVAWLPVVQAAQGGQLFDYIQAVSSYLAPPVSAVFVLALFVPRVNEQGAFWGLIGGLLMGLARLIPEFSFGSGSCVQPSACPAFLCGVHYLYFAIVLFFCSGLLTLTVSLCRVVNLNALLMMAVAVFLWGFYA

Protein sequences, listed by entry. Tags and fused reporters are not part of them. Lines headed by an entry give the natural chain unless they say otherwise; changes in a name come on top. Residues count along the entry.
UniProt O43791: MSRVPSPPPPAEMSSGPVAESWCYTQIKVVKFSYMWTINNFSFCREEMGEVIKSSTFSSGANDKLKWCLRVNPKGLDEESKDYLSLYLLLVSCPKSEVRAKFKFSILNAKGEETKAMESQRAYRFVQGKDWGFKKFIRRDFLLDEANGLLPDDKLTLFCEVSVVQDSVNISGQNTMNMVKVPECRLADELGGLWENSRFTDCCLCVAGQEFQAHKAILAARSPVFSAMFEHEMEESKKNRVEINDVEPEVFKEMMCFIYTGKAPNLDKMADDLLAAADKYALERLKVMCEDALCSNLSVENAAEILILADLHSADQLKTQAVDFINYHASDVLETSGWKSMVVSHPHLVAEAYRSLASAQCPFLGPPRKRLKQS
UniProt Q9NZQ7: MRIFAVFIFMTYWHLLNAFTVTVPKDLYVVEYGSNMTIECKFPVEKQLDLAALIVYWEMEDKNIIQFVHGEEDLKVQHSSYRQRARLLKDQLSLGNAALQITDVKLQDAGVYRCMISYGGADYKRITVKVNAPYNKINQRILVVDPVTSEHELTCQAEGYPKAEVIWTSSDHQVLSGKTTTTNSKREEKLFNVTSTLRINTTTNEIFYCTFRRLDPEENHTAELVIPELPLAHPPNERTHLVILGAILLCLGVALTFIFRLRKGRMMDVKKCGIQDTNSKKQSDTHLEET
PD-L1-Δ283-290-HA: residues 19-282 of Q9NZQ7

Assays:
SPOP-Flag = SPOP-Flag (UniProt O43791); test: co-IP; HEK293T cells transfected with SPOP-Flag and PD-L1-HA; lysis buffer 25 mmol/L Tris-base pH 7.4, 150 mmol/L NaCl, 1% NP-40; anti-Flag resins at 4°C overnight; also with canagliflozin for 24 hours, and with SGLT2 silenced or overexpressed
PD-L1-HA [1] = target: PD-L1-HA (UniProt Q9NZQ7); test: condition: only cells lysed in 0.5% Digitonin/ 1% Triton X-100; co-IP; HEK293T cells transfected with SGLT2-GFP and PD-L1-HA for 24 hours; lysed in 0.5% Digitonin/ 1% Triton X-100; immunoprecipitated with anti-HA, blotted with anti-GFP
PD-L1-HA [2] = target: PD-L1-HA (UniProt Q9NZQ7); test: co-IP; HEK293T cells transfected for 24 hours; lysed in 1% Digitonin buffer (50 mmol/L Tris-HCl pH 7.5, 150 mmol/L NaCl); immunoprecipitated with anti-HA, blotted with anti-GFP
PD-L1-Δ283-290-HA = PD-L1-Δ283-290-HA (UniProt Q9NZQ7); test: as above
PD-L1-HA [3] = target: PD-L1-HA (UniProt Q9NZQ7); test: co-IP; cells treated with canagliflozin before the co-immunoprecipitation of SGLT2 and PD-L1 (Figure 2H)

Molecule | binding (SPOP-Flag) | binding (PD-L1-HA [1]) | binding (PD-L1-HA [2]) | binding (PD-L1-Δ283-290-HA) | binding (PD-L1-HA [3])
PD-L1-HA (from UniProt Q9NZQ7 19-290) | binds | – | – | – | –
B1 | – | no binding | binds | no binding | no binding (condition: cells treated with canagliflozin)
B2 | – | – | no binding | – | –

Reference: article PMC9797339
